Series [1] can be described thus: Solubility according to Ph. Eur.
Series [2] in a line: Stability of hydrazones in solution. To be noted: pH=7 phosphate buffer solution.
The target in a further series is PSMA receptor (Homo sapiens, UniProt Q04609). Briefly: Competition ligand binding on LNCaP carcinoma cell membranes against 131I-MIP1095. On the procedure: An important advantage of the compounds described herein is their high affinity to the PSMA receptor present on prostate cancer cells. Competition ligand binding in vitro studies carried out on LNCaP carcinoma cell membranes allowed for determination of IC50 values, namely the concentrations at which the dissociation equilibrium is maintained. The studies were carried out using 96-well plates equipped with filters, to which the identical amount of membranes was applied.
Chain of UniProt Q04609 (Q04609 whole entry): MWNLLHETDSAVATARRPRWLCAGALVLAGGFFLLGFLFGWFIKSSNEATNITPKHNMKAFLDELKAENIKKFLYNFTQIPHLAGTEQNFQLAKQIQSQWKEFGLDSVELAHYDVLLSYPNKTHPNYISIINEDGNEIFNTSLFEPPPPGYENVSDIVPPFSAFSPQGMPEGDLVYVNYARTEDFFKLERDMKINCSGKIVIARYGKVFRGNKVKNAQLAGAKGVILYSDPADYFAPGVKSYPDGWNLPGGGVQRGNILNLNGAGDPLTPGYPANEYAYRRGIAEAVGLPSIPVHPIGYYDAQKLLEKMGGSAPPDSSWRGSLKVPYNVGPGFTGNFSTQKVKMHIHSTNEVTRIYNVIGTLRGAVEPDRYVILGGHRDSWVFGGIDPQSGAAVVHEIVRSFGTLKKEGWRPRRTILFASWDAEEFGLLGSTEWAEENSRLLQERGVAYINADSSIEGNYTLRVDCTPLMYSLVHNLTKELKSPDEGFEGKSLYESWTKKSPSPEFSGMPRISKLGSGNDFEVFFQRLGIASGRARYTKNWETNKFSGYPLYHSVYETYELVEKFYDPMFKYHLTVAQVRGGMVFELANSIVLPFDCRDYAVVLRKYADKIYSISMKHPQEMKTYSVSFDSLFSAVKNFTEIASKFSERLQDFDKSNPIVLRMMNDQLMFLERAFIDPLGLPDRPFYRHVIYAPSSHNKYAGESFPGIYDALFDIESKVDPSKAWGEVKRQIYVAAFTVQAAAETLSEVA

Series [3] can be described thus: Biodistribution of 99mTc-labelled PSMA preparations in healthy BALB/c mice. It counts as in vivo. To be noted: 99mTc-labelled preparations, 4 h p.i.v. The method, then:
In comparative biodistribution studies on three PSMA preparations labelled with 99mTc, healthy BALB/c mice (males with body weight of 18-27 g) were used. 0.1 mL preparations with the activity of around 6 MBq were administered to the tail vein. After 4 hours of p.i.v. administration, animals were subjected to inhalation euthanasia and then required organs were collected and weighted, and the radioactivity accumulated therein was measured. Preparation accumulation in selected organs or tissues is given as % ID (percentage of injected dose) and % ID/g (percentage of injected dose per gram of the organ or tissue). […]

Setting [4] is: LNCaP cell membranes, competitor 131I-MIP1095, 2-hour incubation, read-out: IC50.

The IC50 is the concentration that inhibits the measured activity by half.

Molecules are shown by their SMILES. Where two headings read alike, the source gives them in different places.

In the case of `CN(C)c1ccc(C=NNc2ccc(C(=O)NCC3CCC(C(=O)NC(Cc4c[nH]c5ccccc45)C(=O)NCCCCC(NC(=O)NC(CCC(=O)O)C(=O)O)C(=O)O)CC3)cn2)cc1` (centres unmarked) [4-(dimethylaminebenzene)hydrazone of PSMA-T4], the “Solubility according to Ph. Eur.” value in series [1] (ethanol) is given as “ethanol: soluble”; in series [1] (pH 7.4 phosphate buffer) it was “soluble”; in series [1] (water), “water: practicaly insoluble”. Also, the Stability in solution entry in series [2] is reported as “stable in the pH=7 phosphate buffer solution at least for a day”.

For the compound `O=C(O)CCc1ccc(O)c(CN(CCN(CC(=O)O)Cc2cc(CCC(=O)NCCCCCC(=O)NCCCC[C@H](NC(=O)N[C@@H](CCC(=O)O)C(=O)O)C(=O)O)ccc2O)CC(=O)O)c1` [PSMA 11, reference compound], the IC50 on PSMA receptor (setting [4]) was 719 nM.

Regarding `NNc1ccc(C(=O)NCC2CCC(C(=O)NC(Cc3ccc4ccccc4c3)C(=O)NCCCCC(NC(=O)NC(CCC(=O)O)C(=O)O)C(=O)O)CC2)cn1` (centres unmarked) [PSMA-T1, PSMA-NaI-Amc-HYNIC], the IC50 on PSMA receptor (setting [4]) was 97 nM. For the same compound, the “Solubility according to Ph. Eur.” value in series [1] (ethanol) is given as “ethanol: soluble”; in series [1] (pH 7.4 phosphate buffer) it was “very slightly soluble”; in series [1] (water), “water: slightly soluble”.

For the compound `NNc1ccc(C(=O)NCCCCCC(=O)N[C@@H](Cc2ccc3ccccc3c2)C(=O)NCCCC[C@H](NC(=O)N[C@@H](CCC(=O)O)C(=O)O)C(=O)O)cn1` [PSMA-T2, PSMA-NaI-6Ahx-HYNIC], the IC50 on PSMA receptor (setting [4]) was determined as 143 nM.

On to `NNc1ccc(C(=O)NCCCCCC(=O)N[C@@H](Cc2c[nH]c3ccccc23)C(=O)NCCCC[C@H](NC(=O)N[C@@H](CCC(=O)O)C(=O)O)C(=O)O)cn1` [PSMA-T3, PSMA-LTrp-6Ahx-HYNIC], for which the IC50 on PSMA receptor (setting [4]) stood at 75 nM. Further, the “Retention levels of radioactivity in kidneys compared with 99mTc-iPSMA reference preparation” value in series [3] is “significantly lower”. In addition, the “Solubility according to Ph. Eur.” value is “ethanol: soluble” in series [1] (ethanol), “very slightly soluble” in series [1] (pH 7.4 phosphate buffer) and “water: insoluble” in series [1] (water).

`NNc1ccc(C(=O)NCC2CCC(C(=O)NC(Cc3c[nH]c4ccccc34)C(=O)NCCCCC(NC(=O)NC(CCC(=O)O)C(=O)O)C(=O)O)CC2)cn1` (centres unmarked) [PSMA-T4, PSMA-LTrp-4Amc-HYNIC] showed an IC50 on PSMA receptor of 80 nM. Also, the “Retention levels of radioactivity in kidneys compared with 99mTc-iPSMA reference preparation” value in series [3] is “significantly lower”.

Consider `COc1cc(C=NNc2ccc(C(=O)NCC3CCC(C(=O)NC(Cc4c[nH]c5ccccc45)C(=O)NCCCCC(NC(=O)NC(CCC(=O)O)C(=O)O)C(=O)O)CC3)cn2)ccc1O` (centres unmarked) [Vanilin hydrazine of PSMA-T4], for which the “Solubility according to Ph. Eur.” value in series [1] (ethanol) is “ethanol: soluble”; in series [1] (pH 7.4 phosphate buffer), “slightly soluble”; in series [1] (water), “water: practicaly insoluble”.

The values above are taken from patent publication US11426395B2, “PSMA inhibitor derivatives for labelling with 99mTc via HYNIC, a radiopharmaceutical kit, radiopharmaceutical preparations and their use in prostate cancer diagnostics” (Narodowe Centrum Badan Jadrowych, Osrodek Radioizotopow …, priority 2019, dated 2022).
